Data: patent US11155596B2, “Polypeptide” (AFFIBODY AB, priority 2016, dated 2021)

Columns and labels:
Type in all cases: binding
hPD-L1 [1] = target: T1, hPD-L1 (Homo sapiens, UniProt Q9NZQ7); assay: Biacore kinetic analysis of primary Z variants, hPD-L1; settings: His6-tagged Z variants over immobilized hPD-L1; 1:1 model
Method: Biacore kinetic and specificity analysis: Kinetic constants (ka and kd) and affinities (KD) for hPD-L1 were determined for 14 Hiss-tagged Z variants using a Biacore 2000 instrument (GE Healthcare). Some of the Z variants were also tested for binding against the sequence-related proteins hPD-L2, hB7-H3, hB7-H4 and mPD-L1 (mouse PD-L1 Fc Chimera, R&D Systems, cat. no. 1019-B7).
hPD-L1, hPD-L2, hB7-H3, hB7-H4 and mPD-L1 were immobilized in separate flow cells on the carboxylated dextran layer of different CM5 chip surfaces (GE Healthcare, cat. no. BR100012). The immobilization was performed using amine coupling chemistry according to the manufacturer's protocol and using HBS-EP as running buffer (0.01 M HEPES pH 7.4, 0.15 M NaCl, 3 mM EDTA, 0.005% v/v Surfactant P20, GE Healthcare, cat. no. BR100188). […] One flow cell surface on each chip was activated and deactivated for use as blank during analyte injections. In the kinetic experiment, HBS-EP was used as running buffer and the flow rate was 50 μl/min. The analytes, i.e. the Z variants, were each diluted in HBS-EP buffer within a concentration range of 1000 to 0.01 nM and injected for 5 min, followed by dissociation in running buffer for 15-25 min. After dissociation, the surfaces were regenerated with one or two injections of 0.1% SDS. Kinetic constants were calculated from the sensorgrams using the Langmuir 1:1 model of BiaEvaluation software 4.1 (GE Healthcare).

hPD-L1 [2] = target: T1, hPD-L1; assay: ELISA screening of Z variants; settings: Example 5 screening; hPD-L1 40 pM; negative controls 0.051 AU
Method: ELISA screening of Z variants: The binding of Z variants to hPD-L1 was analyzed in ELISA assays. Half-area 96-well ELISA plates (Costar, cat. no. 3690) were coated at 4° C. overnight with 2 μg/ml of an anti-ABD goat antibody (produced in-house) diluted in coating buffer (50 mM sodium carbonate, pH 9.6; Sigma, cat. no. C3041). The antibody solution was poured off and the wells were washed in water and blocked with 100 μl of PBSC (PBS supplemented with 0.5% casein; Sigma, cat. no. C8654) for 1 to 3 h at RT. The blocking solution was discarded and 50 μl periplasmic solutions, diluted 1:1 with PBST 0.05%, were added to the wells and incubated for 1.5 to 2.5 h at RT under slow agitation. As a blank control, PBST 0.05% was added instead of a periplasmic sample. The supernatants were poured off and the wells were washed 4 times with PBST 0.05%. Then, 50 μl of biotinylated hPD-L1 at a concentration of 0.32 nM in PBSC was added to each well. The plates were incubated for 1 h at RT followed by washes as described above. […] The absorbance at 450 nm was measured using a multi-well plate reader, Victor^3 (Perkin Elmer).
ELISA screening of Z variants: The binding of Z variants to human PD-L1 was analyzed in ELISA assays as described previously in Example 1 with the following exceptions. […]

hPD-L1 [3] = target: T1, hPD-L1; assay: ELISA EC50 analysis (target titration) of primary Z variants; settings: periplasmic Z-ABD fusions captured on anti-ABD antibody; biotinylated hPD-L1 40 nM diluted 1:4 to 32 pM
Method: ELISA screening of Z variants: The binding of Z variants to hPD-L1 was analyzed in ELISA assays. Half-area 96-well ELISA plates (Costar, cat. no. 3690) were coated at 4° C. overnight with 2 μg/ml of an anti-ABD goat antibody (produced in-house) diluted in coating buffer (50 mM sodium carbonate, pH 9.6; Sigma, cat. no. C3041). The antibody solution was poured off and the wells were washed in water and blocked with 100 μl of PBSC (PBS supplemented with 0.5% casein; Sigma, cat. no. C8654) for 1 to 3 h at RT. The blocking solution was discarded and 50 μl periplasmic solutions, diluted 1:1 with PBST 0.05%, were added to the wells and incubated for 1.5 to 2.5 h at RT under slow agitation. As a blank control, PBST 0.05% was added instead of a periplasmic sample. The supernatants were poured off and the wells were washed 4 times with PBST 0.05%. Then, 50 μl of biotinylated hPD-L1 at a concentration of 0.32 nM in PBSC was added to each well. The plates were incubated for 1 h at RT followed by washes as described above. Streptavidin conjugated HRP (Thermo Scientific, cat. no. N100) diluted 1:30,000 in PBSC, was added to the wells and the plates were incubated for approximately 1 h. After washing as described above, 50 μl ImmunoPure TMB substrate (Thermo Scientific, cat. no. 34021) was added to the wells and the plates were treated according to the manufacturer's recommendations.
EC50 analysis of Z variants: A selection of PD-L1 binding Z variants was subjected to an analysis of the response against a dilution series of biotinylated hPD-L1 following the procedure described above. The Z variants were diluted 1:1 in PBST 0.05%. Biotinylated hPD-L1 was added at a concentration of 40 nM and diluted stepwise 1:4 down to 32 pM. As a background control, all Z variants were also assayed with no target protein added. Periplasm samples containing the PD-L1 binding Z variant Z13112 (SEQ ID.NO:777) were included on each plate and analyzed as positive control. […] Data were analyzed using GraphPad Prism 5 and non-linear regression, and EC50 values (the half maximal effective concentration) were calculated.

T1 sequence (Q9NZQ7 19-290): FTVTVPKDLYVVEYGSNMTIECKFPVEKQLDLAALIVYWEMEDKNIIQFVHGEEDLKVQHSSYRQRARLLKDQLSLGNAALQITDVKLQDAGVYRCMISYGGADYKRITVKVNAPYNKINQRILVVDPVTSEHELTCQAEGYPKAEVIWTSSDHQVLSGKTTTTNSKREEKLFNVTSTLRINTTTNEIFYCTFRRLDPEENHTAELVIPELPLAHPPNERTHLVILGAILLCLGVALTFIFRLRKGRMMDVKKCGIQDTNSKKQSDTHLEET

Row | Kd (hPD-L1 [1]) [nM] | ka (hPD-L1 [1]) [M⁻¹ s⁻¹] | kd (hPD-L1 [1]) [s⁻¹] | ELISA response against hPD-L1 (hPD-L1 [2]) [AU] | EC50 (hPD-L1 [3]) [nM] | Substance
1 | 1.5 | 1.7e+06 | 0.0025 |  |  | Z13156: primary PD-L1 binding Z variant (VDAKYAKERNQAAVEILQLPNLTAAQYWAFIWKLDDDPSQSSELLSEAKKLNDSQAPK; Engineered PD-L1 binding polypeptide)
2 |  |  |  | 0.264 | 0.22 | Z13091: primary PD-L1 binding Z variant (VDAKYAKERNNAAFEILRLPNLTNGQHWAFIWKLADDPSQSSELLSEAKKLNDSQAPK; Engineered PD-L1 binding polypeptide)
